Measurements from PubChem BioAssay AID1645887 (National Center for Advancing Translational Sciences (NCATS), 2021).
Several values for one entry are separate records, joined by “and”; a condition that tells them apart may be missing. Equal values may be shown once. Out of some 16,000 compounds screened, about 40 (0.2%) were called active. Another 1% or so got no clear call; they are omitted. Calls come from the whole dose curve; as a rule, active = well fitted activation curve with a large enough effect; inconclusive = small, poorly fitted or top-dose-only effect, or another doubt; inactive = no such curve, though single readings can be large or run the other way. The list shows a part of the results.

Target: Rap guanine nucleotide exchange factor 4 (Homo sapiens) (UniProt Q8WZA2)
UniProt Q8WZA2, sequence (Q8WZA2 whole entry, looked up): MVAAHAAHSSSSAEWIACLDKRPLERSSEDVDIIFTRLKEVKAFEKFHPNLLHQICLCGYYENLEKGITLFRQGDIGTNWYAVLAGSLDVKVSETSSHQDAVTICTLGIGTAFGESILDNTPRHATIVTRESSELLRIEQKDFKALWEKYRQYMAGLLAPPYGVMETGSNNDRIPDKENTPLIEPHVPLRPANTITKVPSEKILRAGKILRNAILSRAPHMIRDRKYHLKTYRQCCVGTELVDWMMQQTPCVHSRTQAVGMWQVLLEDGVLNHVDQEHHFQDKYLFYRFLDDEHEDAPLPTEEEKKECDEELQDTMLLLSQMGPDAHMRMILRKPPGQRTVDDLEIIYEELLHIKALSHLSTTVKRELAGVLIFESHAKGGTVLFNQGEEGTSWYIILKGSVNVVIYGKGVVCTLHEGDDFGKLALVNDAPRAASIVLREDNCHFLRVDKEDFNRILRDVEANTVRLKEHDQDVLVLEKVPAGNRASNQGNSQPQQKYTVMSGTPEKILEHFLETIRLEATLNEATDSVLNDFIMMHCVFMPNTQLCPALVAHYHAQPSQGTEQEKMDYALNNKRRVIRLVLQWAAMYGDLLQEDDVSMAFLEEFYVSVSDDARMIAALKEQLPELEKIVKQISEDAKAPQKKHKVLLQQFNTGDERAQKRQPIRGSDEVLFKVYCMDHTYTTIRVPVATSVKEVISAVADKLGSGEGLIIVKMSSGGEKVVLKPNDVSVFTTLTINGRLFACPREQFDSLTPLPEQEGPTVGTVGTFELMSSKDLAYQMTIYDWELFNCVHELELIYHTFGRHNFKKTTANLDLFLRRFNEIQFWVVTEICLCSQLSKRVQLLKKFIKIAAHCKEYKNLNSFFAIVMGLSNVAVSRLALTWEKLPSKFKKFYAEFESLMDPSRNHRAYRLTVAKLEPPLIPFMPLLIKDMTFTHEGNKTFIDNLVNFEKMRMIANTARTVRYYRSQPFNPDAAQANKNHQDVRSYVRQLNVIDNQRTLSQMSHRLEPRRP
Test: Validation qHTS for agonist of cAMP-regulated guanine nucleotide exchange factor 4 (EPAC2);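 note: exchange makes BODIPY-GDP fluorescence drop when released from Rap1B; series mostly up to about 150 µM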
Settings: EPAC2 Rap1B BODIPY-GDP exchange, fluorescence; activation: hits give high values
Procedure, shortened: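 Fluorescent exchange assay: 100 nM EPAC2 with 250 nM RAP1B-BODIPY-GDP and 50 uM GDP; compound added, 5 min at room temperature, then read (ex 480/em 540 nm) every 5 min for 30 min. Normalized to 6.5 mM cAMP agonist control.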
% is set by controls: 0 for no effect and ±100 for the full control effect.

activation, inactive:
N#CCCn1c(=O)c(-c2cc(F)cc(F)c2)nc2cnc(Nc3ccccc3)nc21 -1.97%
Cn1cc[nH]c1=S -11.4% and -1.5%
Cc1nc2ccc(C(=O)NCC3CCC4(CCN(Cc5cccnc5)CC4)O3)cc2nc1C (stereo not given) -14.2%
Cc1nc2cnc(N(C)C)nc2n(Cc2ccc(F)cc2)c1=O -12.6%
O=C1[C@H](Cc2ccccc2)NCCCC[C@@H](c2ccc(Cl)cc2)N1Cc1ccc(Cl)cc1 -16.8%
CC1=NS(=O)(=O)c2cc(Cl)ccc2N1 -15.7% [middle of 5 runs]
COc1ccc(Oc2ncc3nc(-c4ccc(Cl)cc4)c(=O)n(C[C@H]4CCCO4)c3n2)cc1 11.7%
N#CCCn1c(=O)c(-c2cccs2)nc2cnc(Oc3ccccc3)nc21 -4.87%
COc1cccc(-c2cc(NCc3cnc(C)cn3)ncn2)c1 -14.6%
CN1N=C(C(=O)N2CCOc3ccc(CN4CCCC(C(=O)c5cccnc5)C4)cc3C2)CCC1=O (stereo not given) -13.8%
Cc1cccc(CN2Cc3cccc4c3[C@H](C=CC4)CC2=S)c1 -21%
NC(=O)c1ccc[n+]([C@@H]2OC(COP(=O)([O-])OP(=O)(O)OCC3OC(n4cnc5c(N)ncnc54)C(O)C3O)C(O)C2O)c1 (stereo not given in full) -11.1%
c1csc(CNc2ncncc2-c2ccoc2)c1 4.43%
CC(C)C[C@H](NC(=O)[C@@H](COC(C)(C)C)NC(=O)[C@H](Cc1ccc(O)cc1)NC(=O)[C@H](CO)NC(=O)[C@H](Cc1c[nH]c2ccccc12)NC(=O)[C@H](Cc1cnc[nH]1)NC(=O)[C@@H]1CCC(=O)N1)C(=O)N[C@@H](CCCN=C(N)N)C(=O)N1CCC[C@H]1C(=O)NNC(N)=O -3.27% and -13.5%
COC(=O)[C@@H]1CCCN1C(=O)c1c(OC)cc(=O)n2c1CCN(Cc1ccc3c(c1)OCCO3)CC2 2.94%
Cc1c(C(=O)NC(C)(C)CO)sc2ncnc(NCCN(C)C)c12 -11.8%
COc1ccc(OC)c(-c2cc(Cl)c3c(c2)CC(CNC(=O)c2cccnc2SC)O3)c1 (stereo not given) 11%
Cc1cccc(C(=O)N[C@H]2CC[C@@H](n3cc(C(=O)N4CCCC4)nn3)CC2)c1 1.3%
COCc1ccc(C(=O)N2CCOc3c(cc(-c4cc(C)c5cccc(OC)c5n4)cc3OC)C2)o1 -3.09%
COc1cccc(Cn2c(=O)c(-c3cccs3)nc3cnc(N4CCOCC4)nc32)c1 23.5%
CN1CCN(c2ncc3nc(-c4cc(F)cc(F)c4)c(=O)n(C)c3n2)CC1 -14%
CS(=O)(=O)Nc1cccc(-c2nccc(NCc3ccccc3)n2)c1 -17.7%
COC1=C(OC)C(=O)C(CC=C(C)CCC=C(C)CCC=C(C)CCC=C(C)CCC=C(C)CCC=C(C)CCC=C(C)CCC=C(C)CCC=C(C)CCC=C(C)C)=C(C)C1=O -5.75%
COc1ccc(CN([C@H](CO)CC(C)C)S(=O)(=O)N(Cc2ccccc2)[C@H](CO)CC(C)C)cc1 -27.3%
CC(C)NCC(O)COc1ccc(CC(N)=O)cc1 (stereo not given) -8.32% and -3.55% and -11.1%
COc1ccc(NC(=O)N2CCC3(CC2)CCN(C(=O)c2cc(C(F)(F)F)cc(C(F)(F)F)c2)CC3)cc1 -17.8%
O=C(CNC(=O)c1cccnc1)c1ccc(F)cc1 -17.4%
N[C@H](C(=O)O)C(O)C(O)C(O)CO (stereo not given in full) -9.22%
COc1cc(O)cc(O)c1 -23%
CCC12C(=Nc3c(Cl)cccc31)C[C@@H]1CCN3C(=O)CCC[C@H]2[C@H]13 (stereo not given in full) -24.6%
COc1ccc2[nH]cc(CCNc3nc(-c4ccccc4CN(C)C)nc4ccccc34)c2c1 -12.2%
Oc1cc2c(cc1O)C(c1ccccc1)CNCC2 (stereo not given) -2.78% and -5.44% and -10.3%
CCCCCCCC(=O)OCC(COC(=O)CCCCCCC)OC(=O)CCCCCCC -10.6%
O=C(O)CC/C=C\CC[C@@H]1[C@@H](N2CCCCC2)[C@@H](O)C[C@@H]1OCc1ccc(-c2ccccc2)cc1 -30.4%
CN(C)c1ncc2nc(-c3cc(F)cc(F)c3)c(=O)n(Cc3cccs3)c2n1 -14.7%
COc1ccccc1-c1cncnc1-n1ccnc1 -19.2%
NC(C(=O)O)C(CC(=O)O)c1ccc(Cl)cc1 (stereo not given) 3.48%
Cc1noc(C)c1-c1cc(NC2CCNCC2)ncn1 -11%
CCNc1ncc2nc(-c3cn(C)c4ccccc34)c(=O)n(CCC#N)c2n1 -8.3%
C[C@@]1(C2CCCC2)Cc2cc(OCC(=O)O)c(Cl)c(Cl)c2C1=O 4.48% and -17.5%
O=C(Nc1ccc(Cl)c(C(F)(F)F)c1)[C@@H]1CC=C[C@@H]2CCN(Cc3ccccc3)C(=O)[C@@H]21 -7.13%
COc1cc(=O)n2c(c1C(=O)N(C)Cc1nonc1C)CCN(Cc1cc(C)ccc1C)CC2 6.01%
Cn1c(=O)c2c(ncn2CC2OCCO2)n(C)c1=O -17.6%
CS(=O)(=O)c1ccc(C(O)C(CO)NC(=O)C(Cl)Cl)cc1 (stereo not given) -4.52%
Cc1cnc(CNc2cc(-c3cccc(C#N)c3)ncn2)cn1 -10.9%
COc1ccccc1CCNCc1cc2cccc(C)c2nc1-c1cccs1 -8.14%
COc1ccccc1CN1CC2(CCN(C(=O)c3cccc(F)c3)CC2)C1 -7.88%
FC(F)(F)c1ccccc1-c1nc(N2CCOCC2)c2ccccc2n1 -36.1%
CN(C)CCOc1ccccc1Cc1ccccc1 (tested in a mixture with another compound) -14.2%
CCCC[C@H]1COCCS(=O)(=O)N1Cc1cccc(F)c1 -34.2%
CN1CCC2(CC1)CCN(S(=O)(=O)c1ccccc1)CC2 -22.8%
O=C(C[n+]1ccncc1)c1cccc([N+](=O)[O-])c1 -25.1%
COc1ccc(-n2c(=O)c(-c3ccc(F)cc3)nc3cnc(N4CCOCC4)nc32)cc1 -23%
CC(=O)N(CC(O)CO)c1c(I)c(C(=O)NCCO)c(I)c(C(=O)NCC(O)CO)c1I (stereo not given) 2%
CN1CCN(c2ccnc(-c3ccccc3C(F)(F)F)n2)CC1 -18.1%
CN(C)c1ncc2nc(-c3ccc(F)cc3)c(=O)n(CCC#N)c2n1 -6.55%
CC(C)NC(=O)[C@@H]1C[C@@H](Sc2nc3ccccc3[nH]2)CN1C1Cc2ccccc2C1 9.17%
CN1CCN(c2ncncc2-c2cccnc2)CC1 -8.45%
COc1ccc(CNc2ncncc2-c2cccc(C#N)c2)c(OC)c1 6.14%
COc1cc(-c2cnc3ccccc3c2)cc2c1OCCN(C(=O)Cn1nccc1C)C2 -0.0267%
COc1cc([C@@H]2c3cc4c(cc3C(O[C@@H]3O[C@@H]5CO[C@@H](C)O[C@H]5[C@H](O)[C@H]3O)C3COC(=O)[C@@H]32)OCO4)cc(OC)c1OP(=O)(O)O (stereo not given in full) -12%
O=C(NCCCN1CCOCC1)c1cnn(-c2ncc3c(n2)-c2ccccc2CC3)c1C1CC1 -7.62%
CC(C)(C)[C@H]1CCC(=O)N([C@H](CC#N)Cc2ccccc2)CC1 -27.2%
O=C1CCN(Cc2ccccc2)CCN1[C@H](COc1ccccc1)c1ccccc1 -23.4%
COc1ccccc1CN1CCC2(CCC(CNC(=O)c3ccccc3N(C)C)O2)CC1 (stereo not given) -11.2%
COc1cccc(Cn2c(=O)c(-c3cccs3)nc3cnc(N(C)C)nc32)c1 -8.67%
Cc1ccc(C(=O)N(Cc2cc3ccc(F)cc3nc2N2CCC(O)CC2)CC2CCCO2)cc1 (stereo not given) -2.31%
COc1ncc2nc(CCc3ccccc3)c(=O)n(Cc3ccc(F)cc3)c2n1 -8.84%
COc1ccc(NC(=O)N2CC3(CCN(C(=O)c4cccc(F)c4)CC3)C2)cc1 -14.9%
FC(F)(F)c1ccccc1-c1nc(NCCN2CCOCC2)c2ccccc2n1 -5.46%
COCC(=O)N1CCC2(CCCN(C(=O)Nc3ccc(OC)cc3)C2)CC1 -0.504%
CC(=O)N(CC(O)CO)c1c(I)c(C(=O)NCC(O)CO)c(I)c(C(=O)NCC(O)CO)c1I (stereo not given) -28.7%
COc1cc(=O)n2c(c1C(=O)N(C)Cc1ccsc1)CCN(Cc1c(C)nn(C)c1Cl)CC2 3.96%
COc1ccccc1CN1CCC2(CC1)CCN(C(=O)c1c(C)noc1C)CC2 2.87%
O=P(O)(O)OC[C@H]1O[C@](O)(COP(=O)(O)O)[C@@H](O)[C@@H]1O -21.3%
NC[C@H](O)c1ccc(O)c(O)c1 10.6% and -16.8% and -7.04%
CN(C)C(=O)c1cc(CNCc2ccc(C(F)(F)F)cc2)cc(NC(=O)c2ccccn2)c1 -9.28%
CNc1nc(-c2c(C)noc2C)nc2ccccc12 -15.6%
CN(C)c1ncnc2ccc(-c3ccccc3C(F)(F)F)cc12 -24.2%
COc1ccccc1C1CN(Cc2ccc(Sc3nncn3C)o2)Cc2ccccc2O1 (stereo not given) -10.1%
